# The other results are listed elsewhere or left out.
# Experiments:
# Experiment in all cases: glycan array binding signal (z-score within array); higher = stronger binding
# Conditions in all cases: glycan notation: IUPAC condensed, linker removed
# [1] = molecular target: GlcNAc(b1-2)Gal(b1-3)GalNAc
# Procedure, shortened: (§1)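 Glycan array binding is given as a within-array Z-score, which can be read as non-binding when negative. The arrays, 3228 of them, came from the Consortium for Functional Glycomics database and were retained only where the protein sequence was available. Z-scores were averaged across arrays of the same protein sequence at different concentrations or buffers and across linkers.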
# [2] = molecular target: GlcNAc(b1-2)Man(a1-3)[GlcNAc(b1-2)Man(a1-6)]Man(b1-4)GlcNAc(b1-4)GlcNAc
# Procedure, shortened: as §1
# [3] = molecular target: GlcNAc(b1-2)Man(a1-3)[GlcNAc(b1-2)Man(a1-6)]Man(b1-4)GlcNAc(b1-4)[Fuc(a1-6)]GlcNAc
# Procedure, shortened: as §1
# [4] = molecular target: GlcNAc(b1-2)Man(a1-3)[GlcNAc(b1-4)][GlcNAc(b1-2)Man(a1-6)]Man(b1-4)GlcNAc(b1-4)GlcNAc
# Procedure, shortened: as §1
# [5] = molecular target: GlcNAc(b1-2)Man(a1-3)[GlcNAc(b1-4)][GlcNAc(b1-2)Man(a1-6)]Man(b1-4)GlcNAc(b1-4)[Fuc(a1-6)]GlcNAc
# Procedure, shortened: as §1
# [6] = molecular target: GlcNAc(b1-2)[GlcNAc(b1-4)]Man(a1-3)[GlcNAc(b1-2)Man(a1-6)]Man(b1-4)GlcNAc(b1-4)GlcNAc
# Procedure, shortened: as §1
# [7] = molecular target: GlcNAc(b1-2)[GlcNAc(b1-4)]Man(a1-3)[GlcNAc(b1-4)][GlcNAc(b1-2)Man(a1-6)]Man(b1-4)GlcNAc(b1-4)GlcNAc
# Procedure, shortened: as §1
# [8] = molecular target: GlcNAc(b1-2)[GlcNAc(b1-4)]Man(a1-3)[GlcNAc(b1-4)][GlcNAc(b1-2)[GlcNAc(b1-6)]Man(a1-6)]Man(b1-4)GlcNAc(b1-4)GlcNAc
# Procedure, shortened: as §1
# [9] = molecular target: GlcNAc(b1-2)[GlcNAc(b1-4)]Man(a1-3)[GlcNAc(b1-4)][GlcNAc(b1-2)[GlcNAc(b1-6)]Man(a1-6)]Man(b1-4)GlcNAc(b1-4)[Fuc(a1-6)]GlcNAc
# Procedure, shortened: as §1
# [10] = molecular target: GlcNAc(b1-2)[GlcNAc(b1-6)]Man(a1-6)[GlcNAc(b1-2)Man(a1-3)]Man(b1-4)GlcNAc(b1-4)GlcNAc
# Procedure, shortened: as §1
# [11] = molecular target: GlcNAc(b1-2)[GlcNAc(b1-6)]Man(a1-6)[GlcNAc(b1-2)Man(a1-3)]Man(b1-4)GlcNAc(b1-4)[Fuc(a1-6)]GlcNAc
# Procedure, shortened: as §1
# [12] = molecular target: GlcNAc(b1-2)[GlcNAc(b1-6)]Man(a1-6)[GlcNAc(b1-4)][GlcNAc(b1-2)Man(a1-3)]Man(b1-4)GlcNAc(b1-4)GlcNAc
# Procedure, shortened: as §1
# GlcNAc(b1-3)Fuc = molecular target: GlcNAc(b1-3)Fuc
# Procedure, shortened: as §1
# GlcNAc(b1-3)Gal = molecular target: GlcNAc(b1-3)Gal
# Procedure, shortened: as §1
# [13] = molecular target: GlcNAc(b1-3)Gal(b1-3)GalNAc
# Procedure, shortened: as §1
# GlcNAc(b1-3)Gal(b1-4)Glc = molecular target: GlcNAc(b1-3)Gal(b1-4)Glc
# Procedure, shortened: as §1
# [14] = molecular target: GlcNAc(b1-3)Gal(b1-4)GlcNAc
# Procedure, shortened: as §1
# [15] = molecular target: GlcNAc(b1-3)Gal(b1-4)GlcNAc(b1-2)Man(a1-3)[GlcNAc(b1-3)Gal(b1-4)GlcNAc(b1-2)Man(a1-6)]Man(b1-4)GlcNAc(b1-4)GlcNAc
# Procedure, shortened: as §1
# [16] = molecular target: GlcNAc(b1-3)Gal(b1-4)GlcNAc(b1-2)Man(a1-3)[GlcNAc(b1-3)Gal(b1-4)GlcNAc(b1-2)Man(a1-6)]Man(b1-4)GlcNAc(b1-4)[Fuc(a1-6)]GlcNAc
# Procedure, shortened: as §1
# [17] = molecular target: GlcNAc(b1-3)Gal(b1-4)GlcNAc(b1-2)[GlcNAc(b1-3)Gal(b1-4)GlcNAc(b1-6)]Man(a1-6)[GlcNAc(b1-3)Gal(b1-4)GlcNAc(b1-2)Man(a1-3)]Man(b1-4)GlcNAc(b1-4)GlcNAc
# Procedure, shortened: as §1
# [18] = molecular target: GlcNAc(b1-3)Gal(b1-4)GlcNAc(b1-3)Gal(b1-4)GlcNAc
# Procedure, shortened: as §1
# [19] = molecular target: GlcNAc(b1-3)Gal(b1-4)GlcNAc(b1-3)Gal(b1-4)GlcNAc(b1-2)Man(a1-3)[GlcNAc(b1-3)Gal(b1-4)GlcNAc(b1-3)Gal(b1-4)GlcNAc(b1-2)Man(a1-6)]Man(b1-4)GlcNAc(b1-4)GlcNAc
# Procedure, shortened: as §1
# [20] = molecular target: GlcNAc(b1-3)Gal(b1-4)GlcNAc(b1-3)Gal(b1-4)GlcNAc(b1-2)Man(a1-3)[GlcNAc(b1-3)Gal(b1-4)GlcNAc(b1-3)Gal(b1-4)GlcNAc(b1-2)Man(a1-6)]Man(b1-4)GlcNAc(b1-4)[Fuc(a1-6)]GlcNAc
# Procedure, shortened: as §1
# [21] = molecular target: GlcNAc(b1-3)Gal(b1-4)GlcNAc(b1-3)Gal(b1-4)GlcNAc(b1-2)[GlcNAc(b1-3)Gal(b1-4)GlcNAc(b1-3)Gal(b1-4)GlcNAc(b1-6)]Man(a1-6)[GlcNAc(b1-3)Gal(b1-4)GlcNAc(b1-3)Gal(b1-4)GlcNAc(b1-2)Man(a1-3)]Man(b1-4)GlcNAc(b1-4)[Fuc(a1-6)]GlcNAc
# Procedure, shortened: as §1
# [22] = molecular target: GlcNAc(b1-3)Gal(b1-4)GlcNAc(b1-3)Gal(b1-4)GlcNAc(b1-3)Gal(b1-4)GlcNAc(b1-2)Man(a1-3)[GlcNAc(b1-3)Gal(b1-4)GlcNAc(b1-3)Gal(b1-4)GlcNAc(b1-3)Gal(b1-4)GlcNAc(b1-2)Man(a1-6)]Man(b1-4)GlcNAc(b1-4)GlcNAc
# Procedure, shortened: as §1
# [23] = molecular target: GlcNAc(b1-3)Gal(b1-4)GlcNAc(b1-3)Gal(b1-4)GlcNAc(b1-3)Gal(b1-4)GlcNAc(b1-2)Man(a1-3)[GlcNAc(b1-3)Gal(b1-4)GlcNAc(b1-3)Gal(b1-4)GlcNAc(b1-3)Gal(b1-4)GlcNAc(b1-2)Man(a1-6)]Man(b1-4)GlcNAc(b1-4)[Fuc(a1-6)]GlcNAc
# Procedure, shortened: as §1
# [24] = molecular target: GlcNAc(b1-3)Gal(b1-4)GlcNAc(b1-3)Gal(b1-4)GlcNAc(b1-3)Gal(b1-4)GlcNAc(b1-2)[GlcNAc(b1-3)Gal(b1-4)GlcNAc(b1-3)Gal(b1-4)GlcNAc(b1-3)Gal(b1-4)GlcNAc(b1-6)]Man(a1-6)[GlcNAc(b1-3)Gal(b1-4)GlcNAc(b1-3)Gal(b1-4)GlcNAc(b1-3)Gal(b1-4)GlcNAc(b1-2)Man(a1-3)]Man(b1-4)GlcNAc(b1-4)[Fuc(a1-6)]GlcNAc
# Procedure, shortened: as §1
# [25] = molecular target: GlcNAc(b1-3)Gal(b1-4)GlcNAc(b1-3)Gal(b1-4)GlcNAc(b1-3)Gal(b1-4)GlcNAc(b1-3)Gal(b1-4)GlcNAc(b1-2)Man(a1-3)[GlcNAc(b1-3)Gal(b1-4)GlcNAc(b1-3)Gal(b1-4)GlcNAc(b1-3)Gal(b1-4)GlcNAc(b1-3)Gal(b1-4)GlcNAc(b1-2)Man(a1-6)]Man(b1-4)GlcNAc(b1-4)GlcNAc
# Procedure, shortened: as §1
# [26] = molecular target: GlcNAc(b1-3)Gal(b1-4)GlcNAc(b1-3)Gal(b1-4)GlcNAc(b1-3)Gal(b1-4)GlcNAc(b1-3)Gal(b1-4)GlcNAc(b1-2)Man(a1-3)[GlcNAc(b1-3)Gal(b1-4)GlcNAc(b1-3)Gal(b1-4)GlcNAc(b1-3)Gal(b1-4)GlcNAc(b1-3)Gal(b1-4)GlcNAc(b1-2)Man(a1-6)]Man(b1-4)GlcNAc(b1-4)[Fuc(a1-6)]GlcNAc
# Procedure, shortened: as §1
# [27] = molecular target: GlcNAc(b1-3)Gal(b1-4)GlcNAc(b1-3)Gal(b1-4)GlcNAc(b1-3)Gal(b1-4)GlcNAc(b1-3)Gal(b1-4)GlcNAc(b1-2)[GlcNAc(b1-3)Gal(b1-4)GlcNAc(b1-3)Gal(b1-4)GlcNAc(b1-3)Gal(b1-4)GlcNAc(b1-3)Gal(b1-4)GlcNAc(b1-6)]Man(a1-6)[GlcNAc(b1-3)Gal(b1-4)GlcNAc(b1-3)Gal(b1-4)GlcNAc(b1-3)Gal(b1-4)GlcNAc(b1-3)Gal(b1-4)GlcNAc(b1-2)Man(a1-3)]Man(b1-4)GlcNAc(b1-4)[Fuc(a1-6)]GlcNAc
# Procedure, shortened: as §1
# [28] = molecular target: GlcNAc(b1-3)Gal(b1-4)GlcNAc(b1-3)Gal(b1-4)GlcNAc(b1-3)GalNAc
# Procedure, shortened: as §1
# [29] = molecular target: GlcNAc(b1-3)Gal(b1-4)GlcNAc(b1-3)GalNAc
# Procedure, shortened: as §1
# [30] = molecular target: GlcNAc(b1-3)Gal(b1-4)GlcNAc(b1-3)[GlcNAc(b1-3)Gal(b1-4)GlcNAc(b1-3)]GalNAc
# Procedure, shortened: as §1
# [31] = molecular target: GlcNAc(b1-3)Gal(b1-4)GlcNAc(b1-6)[Gal(b1-3)]GalNAc
# Procedure, shortened: as §1
# [32] = molecular target: GlcNAc(b1-3)Gal(b1-4)GlcNAc(b1-6)[GlcNAc(b1-3)Gal(b1-3)]GalNAc
# Procedure, shortened: as §1
# [33] = molecular target: GlcNAc(b1-3)Gal(b1-4)GlcNAc(b1-6)[GlcNAc(b1-3)]Gal(b1-4)GlcNAc
# Procedure, shortened: as §1
# GlcNAc(b1-3)GalNAc = molecular target: GlcNAc(b1-3)GalNAc
# Procedure, shortened: as §1
binder,measurement,setting,value
ClecSol-Fc (Cryptosporidium parvum) (protein) CPEGWISNGEKTRCFKLVTFDRPRTFSHGFKACNDLGGTEVETRRRNGSKETNEYPVTLASVYKLSDEEAIRRTLVEQGDIHKTANGCFVGLRKYAFFRYPPGWYWIDSGSPVSVRDSEINWTSSYNASWLLRFKFPFEKCGFFDIGGLGRRPCWLIDSELSCAVCGTVAYDSGGLNPNKYSELIKQTDEIISKEPKLDLPGYNNLNCTDAWENNLSVGLCQNVSNILDSAWSSYQSSLNFPSINFNWKEDSTNEGGDQVYHNSYLDLPRYKQKKTFYWDQDPGTIPALSDEMKLIGLSAQPTYHPLDRSSSGSFESDSTESGRANEERNDTLEEMIYKQSSDSIEDILVPVTKPIFSDYSSIGRNSGVEEVYSSNVSTISSKGVVFPNTTTSSDNDFTKNNPANSSKHTSTSTTTNTTTTTTRTTTTTTTTTTTTTTTTTTTTETTTTKKSTTATKNTTTT,glycan array binding signal (z-score),[1],-0.057
same,glycan array binding signal (z-score),[2],-0.081
same,glycan array binding signal (z-score),[3],-0.096
same,glycan array binding signal (z-score),[4],0.018
same,glycan array binding signal (z-score),[5],-0.114
same,glycan array binding signal (z-score),[6],0.283
same,glycan array binding signal (z-score),[7],-0.044
same,glycan array binding signal (z-score),[8],-0.222
same,glycan array binding signal (z-score),[9],-0.191
same,glycan array binding signal (z-score),[10],-0.117
same,glycan array binding signal (z-score),[11],0.082
same,glycan array binding signal (z-score),[12],-0.202
same,glycan array binding signal (z-score),GlcNAc(b1-3)Fuc,0.075
same,glycan array binding signal (z-score),GlcNAc(b1-3)Gal,-0.151
same,glycan array binding signal (z-score),[13],0.006
same,glycan array binding signal (z-score),GlcNAc(b1-3)Gal(b1-4)Glc,0.02
same,glycan array binding signal (z-score),[14],-0.088
same,glycan array binding signal (z-score),[15],-0.005
same,glycan array binding signal (z-score),[16],0.693
same,glycan array binding signal (z-score),[17],-0.125
same,glycan array binding signal (z-score),[18],-0.107
same,glycan array binding signal (z-score),[19],0.047
same,glycan array binding signal (z-score),[20],-0.079
same,glycan array binding signal (z-score),[21],0.104
same,glycan array binding signal (z-score),[22],0.082
same,glycan array binding signal (z-score),[23],0.057
same,glycan array binding signal (z-score),[24],-0.077
same,glycan array binding signal (z-score),[25],-0.101
same,glycan array binding signal (z-score),[26],0.18
same,glycan array binding signal (z-score),[27],0.166
same,glycan array binding signal (z-score),[28],0.074
same,glycan array binding signal (z-score),[29],-0.187
same,glycan array binding signal (z-score),[30],0.069
same,glycan array binding signal (z-score),[31],-0.215
same,glycan array binding signal (z-score),[32],-0.115
same,glycan array binding signal (z-score),[33],-0.105
same,glycan array binding signal (z-score),GlcNAc(b1-3)GalNAc,-0.143

# From the supplement of paper PMC8728848
